# PMC4336329 (PLoS ONE, 2015)
# About 14,000 (4.5%) of roughly 310,000 compounds showed an effect of 50% or more. The effect is printed as a negative number. This is one part of the list. Where a SMILES comes first, the peptide text is derived from it. The star is where a group is joined. Bz = O=C(c1ccccc1)*
# Biological target: human ether-à-go-go-related gene (hERG) potassium channel (human, UniProt Q12809)
# Experiment: primary screen, population patch clamp on CHO cells stably expressing hERG
# 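Also: peak tail current of the secondary pulse compared with the same well before compound.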
# Chain of human ether-à-go-go-related gene (hERG) potassium channel (Q12809 whole entry, looked up): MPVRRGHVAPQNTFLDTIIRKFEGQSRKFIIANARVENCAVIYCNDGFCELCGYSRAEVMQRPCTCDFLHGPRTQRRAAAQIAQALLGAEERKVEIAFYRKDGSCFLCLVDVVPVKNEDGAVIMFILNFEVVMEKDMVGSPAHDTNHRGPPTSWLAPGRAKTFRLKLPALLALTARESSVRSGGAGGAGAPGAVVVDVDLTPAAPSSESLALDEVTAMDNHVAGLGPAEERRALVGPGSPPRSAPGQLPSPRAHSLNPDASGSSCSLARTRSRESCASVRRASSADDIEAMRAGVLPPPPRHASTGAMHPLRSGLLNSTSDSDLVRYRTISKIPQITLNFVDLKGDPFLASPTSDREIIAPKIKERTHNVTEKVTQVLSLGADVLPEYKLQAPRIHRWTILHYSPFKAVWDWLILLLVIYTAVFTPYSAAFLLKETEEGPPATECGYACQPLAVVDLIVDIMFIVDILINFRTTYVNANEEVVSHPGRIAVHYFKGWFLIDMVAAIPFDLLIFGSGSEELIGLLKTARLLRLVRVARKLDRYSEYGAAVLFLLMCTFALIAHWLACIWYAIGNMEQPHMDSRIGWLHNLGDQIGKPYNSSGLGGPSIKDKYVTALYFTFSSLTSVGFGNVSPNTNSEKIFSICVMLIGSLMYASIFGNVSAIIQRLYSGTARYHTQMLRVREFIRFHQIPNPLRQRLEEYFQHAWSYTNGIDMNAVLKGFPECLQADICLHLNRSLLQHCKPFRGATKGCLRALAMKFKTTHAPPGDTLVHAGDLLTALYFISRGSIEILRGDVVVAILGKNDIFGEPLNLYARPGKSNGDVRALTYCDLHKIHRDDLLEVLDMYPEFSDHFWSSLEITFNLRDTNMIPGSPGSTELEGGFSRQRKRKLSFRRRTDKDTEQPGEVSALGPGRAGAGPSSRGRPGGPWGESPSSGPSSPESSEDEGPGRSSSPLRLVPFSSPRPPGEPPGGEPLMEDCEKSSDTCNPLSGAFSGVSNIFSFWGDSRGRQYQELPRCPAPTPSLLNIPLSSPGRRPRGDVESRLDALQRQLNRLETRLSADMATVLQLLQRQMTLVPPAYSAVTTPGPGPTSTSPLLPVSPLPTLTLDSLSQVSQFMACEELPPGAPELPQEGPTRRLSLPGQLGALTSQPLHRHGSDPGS
row,SMILES,"hERG current change (%, negative = inhibition) at 10uM"
1,COc1ccc(CN2CC(=O)N(c3ccc(C)cc3)C2=S)cc1OC,2.13%
2,COc1ccccc1C1CCN(C(=O)C2CCCCC2)CC1,0.179%
3,CC(=Nc1ccc(C)cc1C)c1sc2ccccc2c1O,3.21%
4,COc1ccc2nc(C)c3cc(C)oc3c2c1,-15.5%
5,CC1CCCN(CCCOc2ccc([N+](=O)[O-])cc2)C1.O=C(O)C(=O)O (stereo not drawn),-74.7%
6,COc1cc(-c2nnc(NC(=O)c3ccc(S(=O)(=O)N4CCOCC4)cc3)o2)cc(OC)c1OC,15.5%
7,Cc1nonc1NC(=O)CSc1nc(C2CCCCC2)nc2ccccc12,-2.81%
8,O=C(NC(Cc1ccccc1)C(=O)NC(Cc1ccccc1)C(=O)O)c1ccccc1 (stereo not drawn) (Bz-Phe-Phe-OH; configuration not given here),36.1%
9,CCOC(=O)CSc1nc2cc(C(F)(F)F)cnc2n1C,-14.6%
10,CCn1c(SCc2cccc(F)c2)nnc1-c1ccncc1,-8.82%
11,Cc1ccc(Cc2c(C)[nH]c(=S)[nH]c2=O)cc1,15.7%
12,CCn1c(CC(C)C)n[nH]c1=S,0.712%
13,COc1ccc(NC(=O)c2nnn(Cc3cccc(F)c3)c2N)c(OC)c1,1.29%
14,CCc1ccc(-n2c(SCC(=O)c3ccc4c(c3)NC(=O)CO4)nc3ccccc3c2=O)cc1,14.8%
15,CCOc1ccc(C(N)=O)cc1OC,6.13%
16,CCOc1ccc(C(=O)CCC(=O)NCC(=O)OCc2ccccc2)cc1OCC,19.1%
17,C#CCNC(=O)C1=C[C@@H](c2ccc(C(F)(F)F)cc2)C[C@@H](OCc2ccc(CO)cc2)O1,-37%
18,COc1cccc(CN(C)C(=O)C2CC(=O)N(c3ccc4c(c3)OCCO4)C2)c1 (stereo not drawn),12.1%
19,CN(CC(=O)Nc1ccc(N2CCOCC2)cc1)Cc1c(O)ccc2ccccc12,1.97%
20,COc1cccc(Nc2nc(NCCO)c3ccccc3n2)c1.Cl,-40.2%
21,O=S(=O)(NC1CCCCC1N1CCC(O)CC1)c1ccccc1 (stereo not drawn),26.2%
22,Cc1cccc(N2C(=O)CC(Sc3nccc(C)n3)C2=O)c1 (stereo not drawn),4.01%

row,SMILES,"hERG current change (%, negative = inhibition) at 10uM"
1,Cc1ccccc1CCN(C(=O)CN1C(=O)c2ccccc2S1(=O)=O)C(C(=O)NCC1CCCO1)c1ccncc1 (stereo not drawn),-18.8%
2,O=C(NC1CCCC1)C(c1ccc(F)cc1)N(Cc1ccccc1Cl)C(=O)CCl (stereo not drawn),0.933%
3,Nc1nc(CSc2nc3ccccc3[nH]2)nc(N2CCOCC2)n1,3.53%
4,CCn1cc(CCC(=O)NC2CCCC2)c2ccccc21,1.13%
5,O=C(O)/C(=C\c1ccco1)NC(=O)c1ccc(Br)o1,11.3%
6,COc1ccc(OC)c(C(=O)COC(=O)CN2C(=O)NC3(CCCCC3C)C2=O)c1 (stereo not drawn),-28.7%
7,Cn1nnc(NC(=S)NC(=O)c2cccc3c(Br)cccc23)n1,17.4%
8,O=C(Nc1ccccc1C(=O)NCCCN1CCOCC1)c1ccc(F)cc1,-15.6%
9,COc1ccccc1CN1CC(C(=O)NCc2ccc(C)c(F)c2)CCC1=O (stereo not drawn),0.721%
10,Cc1cc(Cl)c(OCCCn2cncn2)c(Br)c1,-14.1%
11,CCOC(=O)c1cnc2c(Cl)cccc2c1NCCN(C)C.Cl,-25.6%
12,CCc1ccc(NC(=O)c2cc(-c3cccs3)on2)cc1,14.4%
13,COc1ccc(CC(=O)NC(C)c2nnc(SCCOc3ccc(OC)cc3)n2C)cc1 (stereo not drawn),-11.2%
14,O=C(C1=C[C@@H](C2CCCCC2)C[C@@H](OCc2ccc(CO)cc2)O1)N1CCN(Cc2ccccc2)CC1,-25.4%
15,CC(C)C(NC(=O)c1ccc2c(c1)OCCO2)c1nc2ccccc2[nH]1 (stereo not drawn),26.2%
16,Br.Cc1cc(C)nc(/N=C2/NC(=O)CS2)n1,7.59%
17,CCCN(CCC)C(=O)C1CCCN(S(=O)(=O)c2ccc3c(c2)oc(=O)n3C)C1 (stereo not drawn),-7.73%
18,COc1ccc(-c2nnc3n2N=C(C)CS3)cc1,3.51%
19,Cc1ccc(CN2CCC(N3CC(C)OC(C)C3)CC2)cc1.Cl (stereo not drawn),4.91%
20,CCOC(=O)c1ccc(N=C2S/C(=C\c3cc(C)n(-c4cccnc4)c3C)C(=O)N2C)cc1,0.0252%
21,Cc1nc2cc([N+](=O)[O-])ccc2c(=O)n1-c1ccc(Br)cc1,4.66%
22,O=c1cc(O)nc(SCc2ccc(Cl)cc2)[nH]1,-5.71%

row,SMILES,"hERG current change (%, negative = inhibition) at 10uM"
1,CS(=O)(=O)N1CC(C(=O)NN)Oc2ccc(Cl)cc21 (stereo not drawn),13.6%
2,CCCCNC(=O)c1ccc(CNc2c(N3CCC(C(=O)OCC)CC3)c(=O)c2=O)cc1,-24.3%
3,O=C(CN1CCN(S(=O)(=O)c2ccc(Cl)cc2)CC1)NC(=O)NC1CCCCC1,-27.7%
4,O=C(NCCc1nnc2ccc(N3CCCC3)nn12)c1ccccc1,-11.8%
5,O=C(NC1CC2CCCC(C1)N2C(=O)Nc1ccccc1F)C1CC1 (stereo not drawn),17.7%
6,C[C@H](NC(=O)c1nc[nH]c1C(=O)N1CCc2ccccc2C1)C(=O)OC(C)(C)C,-3.23%
7,Cc1ccccc1NC(=O)N1CCN(S(=O)(=O)c2ccccc2)CC1,8.23%
8,O=C(CSc1nc2ccccc2s1)NCc1ccc2c(c1)OCO2,-8.37%
9,CC1CCN(C(=S)SCc2nc(N)nc(Nc3ccccc3)n2)CC1,-2.72%
10,CCc1nnc(NC(=O)COc2ccc3c(c2)OCO3)s1,26.1%
11,COc1ccc(Cl)cc1C(=O)NCCCSc1ccccc1,-2.2%
12,O=C(NCC1CCCN(Cc2cccc(C(F)(F)F)c2)C1)c1ccc(F)cc1 (stereo not drawn),-58.2%
13,CN(C)S(=O)(=O)c1cccc(-c2cn3ccccc3n2)c1,-2.91%
14,CCCCCCSc1ccc([C@H]2N[C@@](Cc3ccccc3)(C(=O)OC)[C@H]3C(=O)N(C)C(=O)[C@@H]23)cc1.O=C(O)C(F)(F)F,13.3%
15,O=C(/C=C/c1cc[n+](CC(=O)c2ccc3cccc4c3c2CC4)cc1)c1ccc2cccc3c2c1CC3.[Br-],12.9%
16,Cn1cc(CCC(=O)N2CCCC(Nc3ccc(F)cc3)C2)cn1 (stereo not drawn),12.6%
17,CS(=O)(=O)Nc1ccc(C(=O)Nc2ccc(S(=O)(=O)Nc3nccs3)cc2)cc1,12%
18,CCC(=O)c1ccc(OCC(=O)NC2(C#N)CCCCC2)cc1,5.49%
19,COc1cc(CN2CCN(C(=O)c3ccc(-c4ccccc4)cc3)CC2)cc(OC)c1OC.O=C(O)C(=O)O,-54.7%
20,CS(=O)(=O)N1CCN=C1SCc1ccc([N+](=O)[O-])cc1,-38.1%
21,CCC1CN(C(=O)N2CCC(C(=O)NCc3ccccc3OC)CC2)c2cc(C)ccc2O1 (stereo not drawn),-26.1%
22,O=C(Nc1nccs1)c1ccc(COc2ccccc2)o1,15.6%

row,SMILES,"hERG current change (%, negative = inhibition) at 10uM"
1,CCCOc1ccc(CCc2n[nH]c(=S)n2Cc2ccccc2)cc1,-7.26%
2,CCCS(=O)(=O)N1CCC(C(=O)N2CCc3ccccc3C2)CC1,-3.6%
3,O=C(O)C(Cc1c[nH]c2ccccc12)NS(=O)(=O)c1ccc(Br)cc1 (stereo not drawn),8.36%
4,O=C(c1ccc(N2CCCCC2)c([N+](=O)[O-])c1)N(Cc1ccccc1)c1ccccn1,-28%
5,Cc1nnc(N2CCCCC2)c2ccccc12,-5.58%
6,CCOC(=O)N1CCN(Cc2cn3ccccc3n2)CC1.O=C(O)C(=O)O,21.9%
7,CCSc1cnn(-c2ccccc2)c(=O)c1SCC,-8.06%
8,O=C(O)C(=O)O.O=C(c1cccc(F)c1)N1CCN(C2CCCCC2)CC1,-42.4%
9,O=c1cccc2n1CC1CC2CN(Cc2ccc3c(c2)OCO3)C1 (stereo not drawn),-16%
10,O=C(CCCCCN1C(=O)CCC1=O)Nc1ccc(Br)cc1F,1.73%
11,CC(=O)Nc1ccc(OCC(O)Cn2c3ccccc3c3ccccc32)cc1 (stereo not drawn),8.78%
12,CC(C)C(C)NC(=O)CSc1nc2scc(-c3ccco3)c2c(=O)n1-c1ccccc1 (stereo not drawn),3.12%
13,CSc1ccc(CN2CCN(C(=O)COc3cccc(C)c3)CC2)cc1,-50.3%
14,O=C(COC(=O)/C=C/C(=O)OCC(=O)Nc1ccccc1F)Nc1ccccc1F,12.9%
15,O=C(Nc1ccc(Cl)c(Cl)c1)c1cccnc1,-2.86%
16,COc1ccc(CCNC(=O)C2CC2)cc1OC,-18.3%
17,CC(=O)c1cccc(NC(=O)NC2CCCCC2)c1,-11.3%
18,O=C(CN1C(=O)S/C(=C/c2ccccn2)C1=O)N1CCOCC1,16.1%
19,Cn1c2ccccc2c(=O)c2c(=O)n(-c3ccc(F)cc3)c(-c3cccs3)nc21,1.35%
20,C=CCNC(=O)c1ccccc1Cl,14.5%
21,O=C(NCC1OCCCN1S(=O)(=O)c1cc(F)ccc1F)C(=O)NC1CCCCCC1 (stereo not drawn),4.74%
